Test results reported in the supplement of paper PMC4967469.

How the values were obtained:
Test in all cases: Viability of human cancer cell lines after 72 h of drug (GDSC screen)
[1] = compound: NC(=O)Nc1sc(-c2ccc(F)cc2)cc1C(N)=O [TPCA-1]; settings: top dose 20 µM
Protocol: (§1)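 Human cancer cell lines in 384-well plates, medium with 10% serum, drug for 72 h over a 256-fold dose range (nine 2-fold or five 4-fold steps up to the top dose). Adherent lines were fixed and stained with the nucleic acid dye Syto60, suspension lines read with resazurin; signal relative to control wells, capped at 0 and 100%. One two-parameter sigmoid per drug and line, fitted in a mixed model over all curves with the slope shared within a line.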

[2] = compound: CC(C)CC(=O)Nc1n[nH]c2c1CN(C(=O)C1CCN(C)CC1)C2(C)C [PHA-793887]; settings: top dose 10.24 µM
Protocol: as §1

[3] = compound: CCCS(=O)(=O)Nc1ccc(F)c(C(=O)c2c[nH]c3ncc(Cl)cc23)c1F [PLX4720]; settings: top dose 10 µM
Protocol: as §1

[4] = compound: C/C(=C\c1csc(C)n1)[C@@H]1C[C@@H]2O[C@]2(C)CCC[C@H](C)[C@H](O)[C@@H](C)C(=O)C(C)(C)[C@@H](O)CC(=O)O1 [Epothilone B]; settings: top dose 0.032 µM; top dose inferred
Protocol: as §1

[5] = compound: C[C@@H](N)c1ccc(C(=O)Nc2ccnc3[nH]ccc23)cc1 [Y-39983]; settings: top dose 20 µM; top dose inferred
Protocol: as §1

[6] = screen: GDSC drug entry 1371, top dose inferred

Cell Line	AUC [1]	IC50 [1]	AUC [2]	IC50 [2]	AUC ([3]; screen: GDSC drug entry 1036)	IC50 ([3]; screen: GDSC drug entry 1036)	AUC [3, 6]	IC50 [3, 6]	AUC [4]	IC50 [4]	AUC [5]	IC50 [5]
KYSE-450 (oesophagus, adherent)	0.757	6.52 µM	0.561	0.932 µM	0.975	> 10 µM	0.987	> 10 µM	0.244	0.386 nM	0.939	> 20 µM
KYSE-510 (oesophagus, adherent)	0.947	> 20 µM	0.94	> 10.2 µM	0.953	> 10 µM	0.974	> 10 µM	0.094	0.13 nM	0.981	> 20 µM
KYSE-520 (oesophagus, adherent)	0.953	> 20 µM	0.943	> 10.2 µM	0.955	> 10 µM	0.979	> 10 µM	0.731	11.6 nM	0.981	> 20 µM
LC-1-sq (lung squamous cell carcinoma, adherent)	0.951	> 20 µM	0.877	> 10.2 µM	0.985	> 10 µM	0.982	> 10 µM	0.745	11.5 nM	0.983	> 20 µM
LCLC-97TM1 (large cell lung carcinoma, adherent)	0.427	0.774 µM	0.267	0.129 µM	0.903	> 10 µM	0.845	8.25 µM	0.31	0.553 nM	0.943	> 20 µM
LCLC-103H (large cell lung carcinoma, adherent)	0.861	14.4 µM	0.698	2.16 µM	0.978	> 10 µM	0.988	> 10 µM	0.205	0.301 nM	0.945	> 20 µM
LK-2 (lung squamous cell carcinoma, adherent)	0.775	7.48 µM	0.887	> 10.2 µM	0.989	> 10 µM	0.988	> 10 µM	0.58	3.26 nM	0.876	17.9 µM
LN-18 (glioma, adherent)	0.982	> 20 µM	0.985	> 10.2 µM	0.979	> 10 µM	0.991	> 10 µM	0.459	1.58 nM	0.972	> 20 µM
LN-229 (glioma, adherent)	0.979	> 20 µM	0.969	> 10.2 µM	0.97	> 10 µM	0.968	> 10 µM	0.697	7.14 nM	0.967	> 20 µM
LN-405 (glioma, adherent)	0.95	> 20 µM	0.922	> 10.2 µM	0.925	> 10 µM	0.963	> 10 µM	0.913	> 32 nM	0.963	> 20 µM
LNZTA3WT4 (glioma, adherent)	0.943	> 20 µM	0.987	> 10.2 µM	0.984	> 10 µM	0.987	> 10 µM	0.767	11.6 nM	0.959	> 20 µM
LOU-NH91 (lung squamous cell carcinoma, adherent)	0.945	> 20 µM	0.986	> 10.2 µM	0.984	> 10 µM	0.953	> 10 µM	0.911	> 32 nM	0.96	> 20 µM
LS-180 (large intestine, adherent)	0.921	> 20 µM	0.91	> 10.2 µM	0.929	> 10 µM	0.983	> 10 µM	0.353	0.735 nM	0.983	> 20 µM
LU-99A (large cell lung carcinoma, adherent)	0.855	15.7 µM	0.977	> 10.2 µM	–	–	0.972	> 10 µM	0.576	3.21 nM	0.952	> 20 µM
LU-135 (small cell lung carcinoma, suspension)	0.721	4.65 µM	0.608	1.2 µM	0.975	> 10 µM	0.992	> 10 µM	0.253	0.457 nM	0.908	19.4 µM
LoVo (large intestine, adherent)	0.955	> 20 µM	0.987	> 10.2 µM	0.878	> 10 µM	0.984	> 10 µM	0.486	1.83 nM	0.987	> 20 µM
M14 (melanoma, adherent)	0.704	4.85 µM	0.986	> 10.2 µM	–	–	0.549	0.856 µM	0.87	> 32 nM	0.947	> 20 µM
M059J (glioma, adherent)	0.765	7.93 µM	0.803	5.58 µM	0.967	> 10 µM	0.967	> 10 µM	0.484	1.81 nM	0.82	12.7 µM
MC-IXC (neuroblastoma, adherent)	0.746	5 µM	0.872	5.57 µM	0.92	7.93 µM	0.996	> 10 µM	0.584	3.2 nM	0.996	> 20 µM
MCF7 (breast, adherent)	0.986	> 20 µM	0.986	> 10.2 µM	0.899	> 10 µM	0.985	> 10 µM	0.245	0.356 nM	0.986	> 20 µM
MDA-MB-157 (breast, adherent)	0.961	> 20 µM	0.969	> 10.2 µM	0.898	> 10 µM	0.987	> 10 µM	0.967	> 32 nM	0.974	> 20 µM
MDA-MB-175-VII (breast, adherent)	0.987	> 20 µM	0.955	> 10.2 µM	–	–	0.986	> 10 µM	0.952	> 32 nM	0.987	> 20 µM
MDA-MB-231 (breast, adherent)	0.986	> 20 µM	0.971	> 10.2 µM	0.985	> 10 µM	0.985	> 10 µM	0.79	15.2 nM	0.983	> 20 µM

Cell Line	AUC [1]	IC50 [1]	AUC [2]	IC50 [2]	AUC ([3]; screen: GDSC drug entry 1036)	IC50 ([3]; screen: GDSC drug entry 1036)	AUC [3, 6]	IC50 [3, 6]	AUC [4]	IC50 [4]	AUC [5]	IC50 [5]
MDA-MB-330 (breast, adherent)	0.945	> 20 µM	0.916	> 10.2 µM	0.982	> 10 µM	0.97	> 10 µM	0.867	> 32 nM	0.969	> 20 µM
MDA-MB-361 (breast, adherent)	0.958	> 20 µM	0.976	> 10.2 µM	0.989	> 10 µM	0.984	> 10 µM	0.79	14.2 nM	0.984	> 20 µM
MDA-MB-415 (breast, adherent)	0.983	> 20 µM	0.983	> 10.2 µM	0.983	> 10 µM	0.98	> 10 µM	0.818	26.7 nM	0.981	> 20 µM
MDA-MB-436 (breast, adherent)	0.939	> 20 µM	0.97	> 10.2 µM	0.975	> 10 µM	0.959	> 10 µM	0.785	17.6 nM	0.944	> 20 µM
MDA-MB-453 (breast, adherent)	0.953	> 20 µM	0.793	5.27 µM	0.976	> 10 µM	0.983	> 10 µM	0.908	> 32 nM	0.986	> 20 µM
MDA-MB-468 (breast, adherent)	0.876	18.7 µM	0.576	1.03 µM	0.988	> 10 µM	0.987	> 10 µM	0.497	1.96 nM	0.972	> 20 µM
ME-180 (cervix, adherent)	0.666	3.7 µM	0.661	1.83 µM	0.964	> 10 µM	0.977	> 10 µM	0.706	7.87 nM	0.972	> 20 µM
MEL-JUSO (melanoma, adherent)	0.723	5.83 µM	0.866	> 10.2 µM	0.965	> 10 µM	0.976	> 10 µM	0.373	0.855 nM	0.919	> 20 µM
MES-SA (uterus, adherent)	0.992	> 20 µM	0.942	> 10.2 µM	0.992	> 10 µM	0.99	> 10 µM	0.536	2.47 nM	0.992	> 20 µM
MFE-280 (endometrium, adherent)	0.782	10.8 µM	0.885	> 10.2 µM	0.975	> 10 µM	0.98	> 10 µM	0.89	> 32 nM	0.982	> 20 µM
MFE-296 (endometrium, adherent)	0.932	> 20 µM	0.925	> 10.2 µM	0.982	> 10 µM	0.981	> 10 µM	0.587	3.52 nM	0.983	> 20 µM
MFE-319 (endometrium, adherent)	0.98	> 20 µM	0.96	> 10.2 µM	0.922	> 10 µM	0.987	> 10 µM	0.35	0.78 nM	0.989	> 20 µM
MG-63 (osteosarcoma, adherent)	0.983	> 20 µM	0.982	> 10.2 µM	0.984	> 10 µM	–	–	0.244	0.32 nM	0.982	> 20 µM
MHH-ES-1 (Ewing sarcoma, adherent)	0.641	3.05 µM	0.517	0.712 µM	0.979	> 10 µM	0.976	> 10 µM	0.391	1.01 nM	0.91	> 20 µM
MIA-PaCa-2 (pancreas, adherent)	0.982	> 20 µM	0.982	> 10.2 µM	0.871	> 10 µM	0.969	> 10 µM	0.422	1.2 nM	0.985	> 20 µM
MKN1 (stomach, adherent)	0.932	> 20 µM	0.864	9.71 µM	0.965	> 10 µM	0.982	> 10 µM	0.56	2.94 nM	0.946	> 20 µM
MKN28 (stomach, adherent)	0.895	> 20 µM	0.908	> 10.2 µM	0.98	> 10 µM	–	–	0.337	0.698 nM	0.95	> 20 µM
MKN45 (stomach, adherent)	0.964	> 20 µM	0.864	> 10.2 µM	–	–	0.924	> 10 µM	0.585	3.65 nM	0.983	> 20 µM
ML-1 (thyroid, adherent)	0.816	13.5 µM	0.984	> 10.2 µM	–	–	0.944	> 10 µM	0.397	0.992 nM	0.981	> 20 µM
MOG-G-CCM (glioma, adherent)	0.806	12.2 µM	0.859	> 10.2 µM	0.97	> 10 µM	0.981	> 10 µM	0.646	5.45 nM	0.772	9.01 µM
MOG-G-UVW (glioma, adherent)	0.906	> 20 µM	0.939	> 10.2 µM	0.817	5.39 µM	0.934	> 10 µM	0.483	1.8 nM	0.97	> 20 µM
MS751 (cervix, adherent)	0.962	> 20 µM	0.882	9.4 µM	0.987	> 10 µM	0.989	> 10 µM	0.645	4.87 nM	0.98	> 20 µM

A lower IC50 marks a more sensitive line; a limit (>, <) means that the fit lies beyond the doses tested. AUC, from the same fit, is the share of area under the viability curve across the 256-fold dose range; values near 1 show little effect. For some of these results: An inferred top dose was derived from the fitted curves, not read from the paper. For some of these results: Where an entry number is given, a second screen of the drug exists; the two often differ.
